Where a SMILES comes first, the peptide text is derived from it. The star is where a group is joined. Cbz = O=C(OCc1ccccc1)*; CH2F = FC*
Legend:
[1] = system: human neutrophils; assay: In vitro neutrophil death / survival of cultured human neutrophils
[2] = system: murine neutrophils; assay: In vitro neutrophil death / survival of cultured murine neutrophils; assay type: cell-based, mouse

CC(=O)N[C@@H](CS)C(=O)O [N-acetyl cysteine]
Neutrophil survival after 3 days - normalized to fresh neutrophils (100) ([1]; 3.125 mM): <25 | Neutrophil survival after 3 days - normalized to fresh neutrophils (100) ([1]; 6.25 mM): <25 | Neutrophil survival after 3 days - normalized to fresh neutrophils (100) ([1]; 25 mM): <25 | Neutrophil survival after 3 days - normalized to fresh neutrophils (100) ([1]; 50 mM): <25 | Neutrophil survival after 3 days - normalized to fresh neutrophils (100) ([2]; 3.125 mM): <10 | Neutrophil survival after 3 days - normalized to fresh neutrophils (100) ([2]; 6.25 mM): <10 | Neutrophil survival after 3 days - normalized to fresh neutrophils (100) ([2]; 25 mM): <10 | Neutrophil survival after 3 days - normalized to fresh neutrophils (100) ([2]; 50 mM): <10

CS(=O)(=O)O.CS(=O)(=O)O.O=S1(=O)CCN(Cc2cc(NCC3CCOCC3)c3[nH]c(-c4ccccc4)cc3c2)CC1 [NECROX-5]
Neutrophil survival after 3 days - normalized to fresh neutrophils (100) ([1]; 10 nM): <25 | Neutrophil survival after 3 days - normalized to fresh neutrophils (100) ([1]; 100 nM): <25 | Neutrophil survival after 3 days - normalized to fresh neutrophils (100) ([1]; 1 μM): <25 | Neutrophil survival after 3 days - normalized to fresh neutrophils (100) ([1]; 10 μM): <25 | Neutrophil survival after 3 days - normalized to fresh neutrophils (100) ([1]; 100 μM): <25 | Neutrophil survival after 3 days - normalized to fresh neutrophils (100) ([2]; 10 nM): <10 | Neutrophil survival after 3 days - normalized to fresh neutrophils (100) ([2]; 100 nM): <10 | Neutrophil survival after 3 days - normalized to fresh neutrophils (100) ([2]; 1 μM): <10 | Neutrophil survival after 3 days - normalized to fresh neutrophils (100) ([2]; 10 μM): <10 | Neutrophil survival after 3 days - normalized to fresh neutrophils (100) ([2]; 100 μM): <10

CC(=O)OCCN1C(=O)c2c(C)nc3ccc(S(=O)(=O)N4CCOCC4)cc3c2C1=O [Ivachtin]
Neutrophil survival after 3 days - normalized to fresh neutrophils (100) ([1]; 25 μM): <25

COC(=O)C[C@H](NC(=O)[C@H](CCSC)NC(=O)[C@H](CCC(N)=O)NC(=O)[C@H](CC(=O)OC)NC(=O)OCc1ccccc1)C(=O)CF [Z-DQMD-FMK] (Cbz-D(OMe)QMD(OMe)-CH2F)
Neutrophil survival after 3 days - normalized to fresh neutrophils (100) ([1]; 25 μM): <25

CC(C)C(NC(=O)c1ccc2ccccc2n1)C(=O)NC(CC(=O)O)C(=O)COc1c(F)cccc1F (stereo not drawn) [Q-VD-Oph, Quinoline-Val-Asp-Difluorophenoxymethylketone]
Neutrophil survival after 3 days - normalized to fresh neutrophils (100) ([1]; 12.5 μM): 65 ± 9.6 | Neutrophil survival after 3 days - normalized to fresh neutrophils (100) ([1]; 25 μM): 60 ± 0.8 | Neutrophil survival after 3 days - normalized to fresh neutrophils (100) ([1]; 50 μM): 65 ± 3.9 | Neutrophil survival after 3 days - normalized to fresh neutrophils (100) ([1]; 100 μM): 62 ± 4.9 | Neutrophil survival after 3 days - normalized to fresh neutrophils (100) ([1]; 200 μM): 47 ± 8.3 | Neutrophil survival after 3 days - normalized to fresh neutrophils (100) ([2]; 12.5 μM): 49 ± 4.4 | Neutrophil survival after 3 days - normalized to fresh neutrophils (100) ([2]; 25 μM): 51 ± 2.5 | Neutrophil survival after 3 days - normalized to fresh neutrophils (100) ([2]; 50 μM): 52 ± 0.2 | Neutrophil survival after 3 days - normalized to fresh neutrophils (100) ([2]; 100 μM): 46 ± 2.4 | Neutrophil survival after 3 days - normalized to fresh neutrophils (100) ([2]; 200 μM): 50 ± 3.6

CCN(CC)CCCC(C)Nc1nc(C)cc(Nc2ccc3nc(C)cc(N)c3c2)n1 (stereo not shown) [NSC23766]
Neutrophil survival after 3 days - normalized to fresh neutrophils (100) ([1]; 100 nM): <25 | Neutrophil survival after 3 days - normalized to fresh neutrophils (100) ([1]; 1 μM): <25 | Neutrophil survival after 3 days - normalized to fresh neutrophils (100) ([1]; 10 μM): <25 | Neutrophil survival after 3 days - normalized to fresh neutrophils (100) ([1]; 100 μM): <25 | Neutrophil survival after 3 days - normalized to fresh neutrophils (100) ([2]; 100 nM): <10 | Neutrophil survival after 3 days - normalized to fresh neutrophils (100) ([2]; 1 μM): <10 | Neutrophil survival after 3 days - normalized to fresh neutrophils (100) ([2]; 10 μM): <10 | Neutrophil survival after 3 days - normalized to fresh neutrophils (100) ([2]; 100 μM): <10

COC(=O)CC(NC(=O)OC(C)(C)C)C(=O)CF [Boc-D-FMK]
Neutrophil survival after 3 days - normalized to fresh neutrophils (100) ([1]; 25 μM): <25

CN1C(=O)NC(Cc2c[nH]c3c(Cl)cccc23)C1=O (stereo not shown) [Nec-1s, Necrostatin-1s]
Neutrophil survival after 3 days - normalized to fresh neutrophils (100) ([1]; 100 nM): <25 | Neutrophil survival after 3 days - normalized to fresh neutrophils (100) ([1]; 1 μM): <25 | Neutrophil survival after 3 days - normalized to fresh neutrophils (100) ([1]; 10 μM): <25 | Neutrophil survival after 3 days - normalized to fresh neutrophils (100) ([1]; 100 μM): <25 | Neutrophil survival after 3 days - normalized to fresh neutrophils (100) ([1]; 200 μM): <25 | Neutrophil survival after 3 days - normalized to fresh neutrophils (100) ([2]; 100 nM): <10 | Neutrophil survival after 3 days - normalized to fresh neutrophils (100) ([2]; 1 μM): <10 | Neutrophil survival after 3 days - normalized to fresh neutrophils (100) ([2]; 10 μM): <10 | Neutrophil survival after 3 days - normalized to fresh neutrophils (100) ([2]; 100 μM): <10 | Neutrophil survival after 3 days - normalized to fresh neutrophils (100) ([2]; 200 μM): <10

C[C@H](NC(=O)C(=O)Nc1ccccc1C(C)(C)C)C(=O)N[C@@H](CC(=O)O)C(=O)COc1c(F)c(F)cc(F)c1F [Emricasan, N-[2-(1,1-dimethylethyl)phenyl]-2-oxoglycyl-N-[(1S)-1-(carboxymethyl)-2-oxo-3-(2,3,5,6-tetrafluorophenoxy)propyl]-L-Alaninamide]
Neutrophil survival after 3 days - normalized to fresh neutrophils (100) ([1]; 100 nM): <25 | Neutrophil survival after 3 days - normalized to fresh neutrophils (100) ([1]; 1 μM): <25 | Neutrophil survival after 3 days - normalized to fresh neutrophils (100) ([1]; 10 μM): <25 | Neutrophil survival after 3 days - normalized to fresh neutrophils (100) ([1]; 100 μM): <25 | Neutrophil survival after 3 days - normalized to fresh neutrophils (100) ([1]; 200 μM): <25 | Neutrophil survival after 3 days - normalized to fresh neutrophils (100) ([2]; 100 nM): <10 | Neutrophil survival after 3 days - normalized to fresh neutrophils (100) ([2]; 1 μM): <10 | Neutrophil survival after 3 days - normalized to fresh neutrophils (100) ([2]; 10 μM): <10 | Neutrophil survival after 3 days - normalized to fresh neutrophils (100) ([2]; 100 μM): <10 | Neutrophil survival after 3 days - normalized to fresh neutrophils (100) ([2]; 200 μM): <10

COc1cc(O)c2c(c1)oc(=O)c1c3cc(O)c(O)cc3oc21 [Wedelolactone]
Neutrophil survival after 3 days - normalized to fresh neutrophils (100) ([1]; 25 μM): <25

COC(=O)CC[C@H](NC(=O)[C@H](Cc1c[nH]c2ccccc12)NC(=O)OCc1ccccc1)C(=O)N[C@@H](Cc1cnc[nH]1)C(=O)N[C@@H](CC(=O)OC)C(=O)CF [Z-WEHD-FMK] (Cbz-WE(OMe)HD(OMe)-CH2F)
Neutrophil survival after 3 days - normalized to fresh neutrophils (100) ([1]; 25 μM): <25

CCO[C@@H]1OC(=O)C[C@@H]1NC(=O)[C@@H]1CCCN1C(=O)[C@@H](NC(=O)c1ccc(N)c(Cl)c1)C(C)(C)C [Belnacasan (VX-765)]
Neutrophil survival after 3 days - normalized to fresh neutrophils (100) ([1]; 12.5 μM): <25 | Neutrophil survival after 3 days - normalized to fresh neutrophils (100) ([1]; 25 μM): <25 | Neutrophil survival after 3 days - normalized to fresh neutrophils (100) ([1]; 50 μM): <25 | Neutrophil survival after 3 days - normalized to fresh neutrophils (100) ([1]; 100 μM): <25 | Neutrophil survival after 3 days - normalized to fresh neutrophils (100) ([1]; 200 μM): <25 | Neutrophil survival after 3 days - normalized to fresh neutrophils (100) ([2]; 12.5 μM): <10 | Neutrophil survival after 3 days - normalized to fresh neutrophils (100) ([2]; 25 μM): <10 | Neutrophil survival after 3 days - normalized to fresh neutrophils (100) ([2]; 50 μM): <10 | Neutrophil survival after 3 days - normalized to fresh neutrophils (100) ([2]; 100 μM): <10 | Neutrophil survival after 3 days - normalized to fresh neutrophils (100) ([2]; 200 μM): <10

CS(=O)(=O)N1CCC(Nc2cc(CN3CCS(=O)(=O)CC3)cc3cc(-c4ccccc4)[nH]c23)CC1 [NECROX-2]
Neutrophil survival after 3 days - normalized to fresh neutrophils (100) ([1]; 10 nM): <25 | Neutrophil survival after 3 days - normalized to fresh neutrophils (100) ([1]; 100 nM): <25 | Neutrophil survival after 3 days - normalized to fresh neutrophils (100) ([1]; 1 μM): <25 | Neutrophil survival after 3 days - normalized to fresh neutrophils (100) ([1]; 10 μM): <25 | Neutrophil survival after 3 days - normalized to fresh neutrophils (100) ([1]; 100 μM): <25 | Neutrophil survival after 3 days - normalized to fresh neutrophils (100) ([2]; 10 nM): <10 | Neutrophil survival after 3 days - normalized to fresh neutrophils (100) ([2]; 100 nM): <10 | Neutrophil survival after 3 days - normalized to fresh neutrophils (100) ([2]; 1 μM): <10 | Neutrophil survival after 3 days - normalized to fresh neutrophils (100) ([2]; 10 μM): <10 | Neutrophil survival after 3 days - normalized to fresh neutrophils (100) ([2]; 100 μM): <10

COC(=O)C[C@H](NC(=O)[C@H](C)NC(=O)[C@@H](NC(=O)[C@H](CC(=O)OC)NC(=O)[C@@H](NC(=O)OCc1ccccc1)C(C)C)C(C)C)C(=O)CF [Z-VDVAD-FMK] (Cbz-VD(OMe)VAD(OMe)-CH2F)
Neutrophil survival after 3 days - normalized to fresh neutrophils (100) ([1]; 25 μM): <25

CC(=O)N(O)CCCCCNC(=O)CCC(=O)N(O)CCCCCNC(=O)CCC(=O)N(O)CCCCCN.CS(=O)(=O)O [DFO, deferoxamine mesylate]
Neutrophil survival after 3 days - normalized to fresh neutrophils (100) ([1]; 1 μM): <25 | Neutrophil survival after 3 days - normalized to fresh neutrophils (100) ([1]; 10 μM): <25 | Neutrophil survival after 3 days - normalized to fresh neutrophils (100) ([1]; 100 μM): <25 | Neutrophil survival after 3 days - normalized to fresh neutrophils (100) ([1]; 1 mM): <25 | Neutrophil survival after 3 days - normalized to fresh neutrophils (100) ([1]; 10 mM): <25 | Neutrophil survival after 3 days - normalized to fresh neutrophils (100) ([2]; 1 μM): <10 | Neutrophil survival after 3 days - normalized to fresh neutrophils (100) ([2]; 10 μM): <10 | Neutrophil survival after 3 days - normalized to fresh neutrophils (100) ([2]; 100 μM): <10 | Neutrophil survival after 3 days - normalized to fresh neutrophils (100) ([2]; 1 mM): <10 | Neutrophil survival after 3 days - normalized to fresh neutrophils (100) ([2]; 10 mM): <10

CC(=O)N[C@@H](CC(=O)O)C(=O)N[C@@H](CCC(=O)O)C(=O)N[C@H](C(=O)N[C@H](C=O)CC(=O)O)C(C)C [Ac-DEVD-CHO, (4S,7S,10S,13S)-7-(2-carboxyethyl)-4-(carboxymethyl)-13-formyl-10-isopropyl-2,5,8,11-tetraoxo-3,6,9,12-tetraazapentadecan-15-oic acid]
Neutrophil survival after 3 days - normalized to fresh neutrophils (100) ([1]; 100 nM): <25 | Neutrophil survival after 3 days - normalized to fresh neutrophils (100) ([1]; 1 μM): <25 | Neutrophil survival after 3 days - normalized to fresh neutrophils (100) ([1]; 10 μM): <25 | Neutrophil survival after 3 days - normalized to fresh neutrophils (100) ([1]; 25 μM): <25 | Neutrophil survival after 3 days - normalized to fresh neutrophils (100) ([1]; 100 μM): <25 | Neutrophil survival after 3 days - normalized to fresh neutrophils (100) ([1]; 200 μM): <25 | Neutrophil survival after 3 days - normalized to fresh neutrophils (100) ([2]; 100 nM): <10 | Neutrophil survival after 3 days - normalized to fresh neutrophils (100) ([2]; 1 μM): <10 | Neutrophil survival after 3 days - normalized to fresh neutrophils (100) ([2]; 10 μM): <10 | Neutrophil survival after 3 days - normalized to fresh neutrophils (100) ([2]; 100 μM): <10 | Neutrophil survival after 3 days - normalized to fresh neutrophils (100) ([2]; 200 μM): <10

Hsp70: Heat Shock Protein 70, LMP inhibitor; recombinant human or mouse Hsp70 protein
Neutrophil survival after 3 days - normalized to fresh neutrophils (100) ([1]; 10 pM): <25 | Neutrophil survival after 3 days - normalized to fresh neutrophils (100) ([1]; 100 pM): <25 | Neutrophil survival after 3 days - normalized to fresh neutrophils (100) ([1]; 1 nM): <25 | Neutrophil survival after 3 days - normalized to fresh neutrophils (100) ([1]; 10 nM): <25 | Neutrophil survival after 3 days - normalized to fresh neutrophils (100) ([1]; 100 nM): <25 | Neutrophil survival after 3 days - normalized to fresh neutrophils (100) ([1]; 200 nM): <25 | Neutrophil survival after 3 days - normalized to fresh neutrophils (100) ([2]; 10 pM): <10 | Neutrophil survival after 3 days - normalized to fresh neutrophils (100) ([2]; 100 pM): <10 | Neutrophil survival after 3 days - normalized to fresh neutrophils (100) ([2]; 1 nM): <10 | Neutrophil survival after 3 days - normalized to fresh neutrophils (100) ([2]; 10 nM): <10 | Neutrophil survival after 3 days - normalized to fresh neutrophils (100) ([2]; 100 nM): <10 | Neutrophil survival after 3 days - normalized to fresh neutrophils (100) ([2]; 200 nM): <10
